This data set concerns ATP. The experiment in a line: switch fluorescence ratio, 500 uM ATP over buffer (Cy3 cluster intensity, sum of 5 cycles each) (fold (ratio)); higher = stronger signal-on switching upon ATP binding; sequences stand for … in TCGTCGGCAGCGTCAGATGTGTATAAGAGACAGTTTTTTTTTTTTTTTTTTTTTTTTT…TC. The conditions noted are these: aptamer strand: ATP DNA aptamer (quencher-CACCTGGGGGAGTATTGCGGAGGAAGG + anchor), 100 nM annealed; ATP concentration: 500 uM; one replicate. The gist of the method: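 Clusters carrying Cy3-labelled switching strands on a modified Illumina MiSeq flow-cell were annealed to 100 nM quencher-labelled ATP aptamer and imaged in selection buffer. They were imaged again after 15 min with 500 uM ATP at 22 °C, over five buffer/ATP cycles with NaOH stripping and re-annealing in between. For each cluster, the fluorescence ratio is the summed Cy3 intensity of the target cycles divided by that of the buffer cycles, averaged per switch-domain sequence. Clusters outside 100-1000 RFU were left out.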

Sequences with one replicate were seen in a single cluster, so their values are uncertain.
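Also: ATP exposure 15 min at 22 °C before imaging.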

For TGTGCCAAAC, the switch fluorescence ratio is 0.974.
As for TCGGGAGGTG, the figure is 1.03; as for GGCAGCGAAT, 1.02; as for CAACACATAT, 1.02.
As for GTCCCGTTTT, the figure is 1.02; as for GCATGAAGGA, 0.985; as for TTAGGCCTTG, 0.967.
In the case of TCCTGGTTAT it was 1.02.
On to TAGGCCTTCA, for which the switch fluorescence ratio came out at 1.34.
With AAATCATCTG, the switch fluorescence ratio is 0.996.
In the case of TAGTGGGAAC it was 1.02; in that of TAATGTAAAC, 0.966; in that of TGGCATGTT, 1.05.
In the case of TACCCGGGTG it was 5.42.
With TCGTAGTTAT, the switch fluorescence ratio came to 1.1.
As for TACCGGGTTA, the figure is 1.04; as for AATCATTCTA, 0.974; as for ATGGAGTTGT, 1.09.
As for AGGTTACAC, the figure is 0.992; as for GCACGGCCAT, 1.08.
For TGGGGAGTAC, the switch fluorescence ratio is 1.05.
Turning to TAAGTGAGGA, the switch fluorescence ratio is 0.999.
As for TCCTTACGTC, the figure is 1.12; as for CCGATGTGCC, 1.33.
On to ATGGCCCCGC, for which the switch fluorescence ratio was 1.
For TGCGGGATTC, the switch fluorescence ratio stood at 1.03.
As for TCCACAATAT, the figure is 5.34.
Turning to GTGTGGACAC, the switch fluorescence ratio was determined as 0.966.
As for TAAGACGAAC, the figure is 1.36; as for GTTCTCGATC, 1.04.
As for ATGGCGTCAG, the figure is 1; as for ACGCCCGATT, 1.09; as for TGATGAAAAC, 0.979.
As for AACCGACAAG, the figure is 1.29; as for CCTATTCGTA, 0.986.
Take TCAGTTGTGT: the switch fluorescence ratio turned out to be 0.985.
With GAATAACCAA, the switch fluorescence ratio came to 0.979.
As for GGTTGTTCTA, the figure is 0.979.
As for TGCTAGGTTT, the figure is 0.982.
In the case of GCGCCCTATA it was 0.989.
GATGCGCGGG: the switch fluorescence ratio amounted to 0.971.
With TTTCGTTCCA, the switch fluorescence ratio is 1.02.
In the case of ACAGATAACG it was 1.06.
In the case of GGAGAAGATG it was 1.03; in that of GCGACGACAG, 1.03; in that of CACGGACTTC, 1.28.
As for CGGTCTGACT, the figure is 0.953; as for CCCGGTTTCT, 0.993.
Take TGCTTGTTG: the switch fluorescence ratio stood at 1.02.
Consider CCCCCGGTCG, for which the switch fluorescence ratio was 2.73.
In the case of TAAATTATGA it was 1; in that of TCGCGGAATA, 1.06.
In the case of AGGGTAGGTT it was 0.919; in that of AAACGGCATG, 1.04.
As for CAGTTACTGT, the figure is 1.
On to ACAGAAAAGT, for which the switch fluorescence ratio was determined as 1.04.
In the case of AAATATTGAC it was 1.04.
As for GATCTGATGG, the figure is 0.949.
For the sequence CAAGGTATAC, the switch fluorescence ratio was found to be 1.18.
As for TTAGAAATG, the figure is 1; as for AGAGCTGCTA, 1.03.
As to GTCTAAAGAC, the switch fluorescence ratio is 0.971.
In the case of AATCCGGCGG it was 1.01.
In the case of ACAGATACCA it was 1.04; in that of ATCACTGTTT, 0.932.
In the case of TGCAGTCCTC, the switch fluorescence ratio amounted to 1.05.
In the case of GAGCCCACTC it was 1.03; in that of ATTGGAACGG, 1.03; in that of ACTTATTGTT, 0.982.
As for GTAAGCTGC, the figure is 0.98.
In the case of AGCTACTCTT it was 1.23; in that of TTAGGCGCA, 1.03.
As for GCTCGTTTG, the switch fluorescence ratio was determined as 1.04.
In the case of AATAGCGTTG it was 1.01; in that of AGCCAGGTCA, 1.06; in that of TTGTTAGTCC, 1.01.
As for GCGGTAACAC, the figure is 1; as for GGACTGG, 0.997; as for GGTAAGGGCG, 1.04.
With ATTGTCATTT, the switch fluorescence ratio was 0.953.
As for TGATTTCCAA, the figure is 0.983; as for CGATGGG, 1.01.
Turning to AATCGTGAAA, the switch fluorescence ratio amounted to 1.
As for CGTAGGCGAT, the figure is 1.02.
As to TTGTGCGATG, the switch fluorescence ratio was 1.09.
As for GGAGGTACGA, the figure is 0.971.
As for GATGAAACAG, the figure is 1.01.
In the case of CGATTACTAG it was 1.02.
As for ATGGAATCCG, the switch fluorescence ratio worked out at 1.02.
As for ACCAGTGGTC, the figure is 0.996; as for GGCCCGCCTG, 1.
Turning to GTAGTGCAT, the switch fluorescence ratio stood at 1.02.
As for CATTTTCATT, the figure is 1.02; as for ACGTCTTGTG, 0.951; as for TACATCGGTT, 0.998.
In the case of GACTTATGTC it was 0.991; in that of GAGGGTCCCT, 0.957.
In the case of AAGCTGGGGC it was 1.01; in that of GCGATTGAAT, 1.04; in that of TCATAAGTCT, 0.998.
Regarding TACGCGACGA, the switch fluorescence ratio was found to be 1.04.
In the case of TCCAGCTCCC it was 1.33.
As for AAGATATAAC, the figure is 0.984.
Consider CACTATGGTC, for which the switch fluorescence ratio worked out at 0.925.
Turning to TAGTATCGGT, the switch fluorescence ratio turned out to be 0.958.
In the case of AGTGGGTTCG it was 1.01; in that of ATTGGCGCGC, 0.98; in that of TGGGTTCATG, 1.03.
As for TAGTGAAAAG, the figure is 1; as for AAACAATGGG, 1.01; as for TTCCACACGT, 1.01.
On to CGGAGCGGCC, for which the switch fluorescence ratio is 2.48.
As for CGTCCCGTAC, the figure is 2.87; as for TTATTTTGCT, 0.986; as for CGCCGATTCT, 1.03.
As for AGATTAGCAT, the figure is 1.05; as for TGCTGTTGAC, 0.996.
In the case of CATTTTGAGT it was 0.995; in that of AGTTACCCTA, 1.1; in that of AATGACGAAC, 1.38.

The values are drawn from the supplement of paper PMC10126150.
